We go through 59 molecules from article PMC4336329 (PLoS ONE, 2015).

Structures are written as SMILES. Among all 310,000 compounds or so, about 14,000 (4.5%) showed an effect of 50% or more. Effects have a minus sign here. This is one part of the list.
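Further: peak tail current of the secondary pulse compared with the same well before compound.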

Sequence of human ether-à-go-go-related gene (hERG) potassium channel (Q12809 whole entry, looked up): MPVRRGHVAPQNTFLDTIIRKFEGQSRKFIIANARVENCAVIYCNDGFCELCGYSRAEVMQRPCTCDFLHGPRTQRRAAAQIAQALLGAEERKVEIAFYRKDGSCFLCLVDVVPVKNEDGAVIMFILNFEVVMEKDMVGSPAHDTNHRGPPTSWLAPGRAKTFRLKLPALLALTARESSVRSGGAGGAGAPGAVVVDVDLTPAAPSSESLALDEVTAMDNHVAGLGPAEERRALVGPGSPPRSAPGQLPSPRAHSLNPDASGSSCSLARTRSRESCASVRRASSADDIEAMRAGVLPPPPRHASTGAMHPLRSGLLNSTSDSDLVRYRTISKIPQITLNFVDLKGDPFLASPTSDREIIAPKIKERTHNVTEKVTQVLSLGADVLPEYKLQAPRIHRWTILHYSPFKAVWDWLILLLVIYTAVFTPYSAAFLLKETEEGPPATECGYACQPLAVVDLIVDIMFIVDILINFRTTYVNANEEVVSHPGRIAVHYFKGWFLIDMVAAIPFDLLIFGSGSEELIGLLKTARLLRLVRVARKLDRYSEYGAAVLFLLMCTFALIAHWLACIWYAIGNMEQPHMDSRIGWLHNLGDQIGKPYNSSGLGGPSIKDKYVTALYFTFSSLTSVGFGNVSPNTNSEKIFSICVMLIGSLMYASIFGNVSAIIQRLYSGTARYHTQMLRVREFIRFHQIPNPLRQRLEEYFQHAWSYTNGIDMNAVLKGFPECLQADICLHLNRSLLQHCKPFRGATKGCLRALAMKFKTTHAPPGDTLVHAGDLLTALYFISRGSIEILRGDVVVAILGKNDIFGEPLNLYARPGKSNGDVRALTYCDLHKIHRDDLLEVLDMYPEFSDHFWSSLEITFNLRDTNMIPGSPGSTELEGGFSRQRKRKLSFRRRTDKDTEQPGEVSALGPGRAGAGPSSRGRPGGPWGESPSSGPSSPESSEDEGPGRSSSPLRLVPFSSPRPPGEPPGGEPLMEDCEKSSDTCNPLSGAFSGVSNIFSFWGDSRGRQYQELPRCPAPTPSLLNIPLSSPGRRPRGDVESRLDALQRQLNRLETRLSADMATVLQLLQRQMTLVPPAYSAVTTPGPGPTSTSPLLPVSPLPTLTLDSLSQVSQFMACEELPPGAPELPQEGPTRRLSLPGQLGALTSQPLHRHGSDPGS

The test has as its target human ether-à-go-go-related gene (hERG) potassium channel (human, UniProt Q12809). The test can be described thus: primary screen, population patch clamp on CHO cells stably expressing hERG.
As to `O=C(Oc1cccnc1)c1cc(S(=O)(=O)N2CCCCC2)ccc1Cl`, the “hERG current change (%, negative = inhibition) at 10uM” value stood at 12.5%.

Take `Cc1cc2c(cc1C)NC1=C(N2)OC(c2cccc(O)c2)C1=O` (centres unmarked): the “hERG current change (%, negative = inhibition) at 10uM” value is recorded as -2.04%.

On to `Cc1ccc(SCC(=O)Nc2ncc(C)s2)cc1`, for which the “hERG current change (%, negative = inhibition) at 10uM” value is listed as -6.79%.

Take `O=c1oc2ccccc2cc1-c1csc(Nc2nc3c(F)cccc3s2)n1`: the “hERG current change (%, negative = inhibition) at 10uM” value was found to be 8.29%.

Take `COc1ccc(C(C)=O)cc1COC(=O)c1ccc2ccccc2n1`: the “hERG current change (%, negative = inhibition) at 10uM” value is on record as -0.671%.

Regarding `N#Cc1cccc(-n2nnnc2-c2ccccn2)c1`, the “hERG current change (%, negative = inhibition) at 10uM” value amounted to 13.3%.

Take `Cc1ccc(/C=C/C(=O)NCC2COc3ccccc3O2)o1` (centres unmarked): the “hERG current change (%, negative = inhibition) at 10uM” value is reported as -18.2%.

Regarding `Nc1c2c(nc3ccccc13)N(C1CCCCC1)CC2`, the “hERG current change (%, negative = inhibition) at 10uM” value is listed as -65.6%.

With `CC(C)(CSc1ncccn1)NS(=O)(=O)c1ccccc1`, the “hERG current change (%, negative = inhibition) at 10uM” value was determined as 22.6%.

For `CCN(c1ccccc1)S(=O)(=O)c1cc(NC(=O)COC(=O)C2CC2)ccc1Cl`, the “hERG current change (%, negative = inhibition) at 10uM” value is recorded as -39.1%.

With `CC1(C)CC(=O)C(C=NCCN2CCN(C(=O)Cc3ccccc3)CC2)=C(O)C1`, the “hERG current change (%, negative = inhibition) at 10uM” value is -24.8%.

With `COc1ccc(C=O)cc1COc1ccccc1F`, the “hERG current change (%, negative = inhibition) at 10uM” value is -7.67%.

Take `O=C(Nc1cccc2ccccc12)c1ccc(F)cc1`: the “hERG current change (%, negative = inhibition) at 10uM” value turned out to be 5.58%.

In the case of `O=C(NC(=S)NNC(=O)c1cccs1)c1ccccc1`, the “hERG current change (%, negative = inhibition) at 10uM” value was -15.4%.

In the case of `O=C(Nc1ccccc1)Oc1ccc[nH]c1=O`, the “hERG current change (%, negative = inhibition) at 10uM” value was found to be 21.4%.

As for `COc1ccc(-c2csc(N3C(=O)CNC3=S)n2)cc1`, the “hERG current change (%, negative = inhibition) at 10uM” value is on record as 16.9%.

As for `N#CCCN(Cc1cccnc1)S(=O)(=O)c1ccc(S(=O)(=O)N2CCCCCC2)cc1`, the “hERG current change (%, negative = inhibition) at 10uM” value is reported as -25%.

As for `C=Cn1ccnc1P(=S)(c1ccc(Cl)cc1)c1nccn1C=C`, the “hERG current change (%, negative = inhibition) at 10uM” value was -2.53%.

As for `O=C(Cc1c(Cl)cccc1Cl)N1CCN(Cc2ccccc2)CC1`, the “hERG current change (%, negative = inhibition) at 10uM” value is on record as -0.0324%.

With `Cc1occc1C(=O)NCCCc1ccccc1`, the “hERG current change (%, negative = inhibition) at 10uM” value is 4.61%.

On to `CC(NC(=O)c1ccc2c(c1)OCO2)C(c1cccs1)N1CCN(c2ccccc2)CC1` (centres unmarked), for which the “hERG current change (%, negative = inhibition) at 10uM” value turned out to be 3.68%.

For `Cc1cccc(C(=O)NC2CC3CCCC(C2)N3C(=O)Nc2ccccc2)c1` (centres unmarked), the “hERG current change (%, negative = inhibition) at 10uM” value came to 17.6%.

For `CC(C)CN1CCCC(N2CCN(c3cccc(Cl)c3)CC2)C1` (centres unmarked), the “hERG current change (%, negative = inhibition) at 10uM” value is -21.5%.

As to `O=C(CSc1ncccn1)Nc1ccc2[nH]c(=O)[nH]c2c1`, the “hERG current change (%, negative = inhibition) at 10uM” value is 0.729%.

Consider `O=C1CN=C(c2ccccc2Cl)c2cc(Br)ccc2N1`, for which the “hERG current change (%, negative = inhibition) at 10uM” value is reported as -30.7%.

As to `CN(Cc1ccco1)c1ncnc2ccc(-c3ccccc3Cl)cc12`, the “hERG current change (%, negative = inhibition) at 10uM” value was 2.59%.

As to `CCCCCN1CC(O)=C(c2nc(-c3ccc(Cl)cc3)cs2)C1=N`, the “hERG current change (%, negative = inhibition) at 10uM” value was determined as 11.4%.

With `COc1ccc(-c2cc(C#N)nc(N3CCNCC3)n2)cc1`, the “hERG current change (%, negative = inhibition) at 10uM” value is -79.3%.

On to `CCN(CC)c1ccc(C(=O)OCC(=O)NC2CCCCC2C)cc1` (centres unmarked), for which the “hERG current change (%, negative = inhibition) at 10uM” value is reported as -0.411%.

For `CC(C)C(CCNC(=O)CC(Cc1ccccc1)c1ccco1)c1ccco1` (centres unmarked), the “hERG current change (%, negative = inhibition) at 10uM” value was -20%.

`Cc1ccc(NC(=O)C2CCCN2C(=O)OCc2ccccc2)c(O)c1` (centres unmarked): the “hERG current change (%, negative = inhibition) at 10uM” value was 18%.

On to `CN(c1ccccc1)S(=O)(=O)c1nnc(NC(=O)COc2ccccc2F)s1`, for which the “hERG current change (%, negative = inhibition) at 10uM” value turned out to be 24.4%.

As for `CC(C)(C)S(=O)(=O)/C(C#N)=C/c1sccc1C1OCCO1`, the “hERG current change (%, negative = inhibition) at 10uM” value amounted to 7.35%.

As for `Cc1ccc2cc(CN(CC3CCCO3)S(=O)(=O)c3ccccc3)c3nnnn3c2c1` (centres unmarked), the “hERG current change (%, negative = inhibition) at 10uM” value was -28.6%.

Regarding `COc1cc(C(=O)Nc2ccccc2N2CCN(S(C)(=O)=O)CC2)cc(OC)c1OC`, the “hERG current change (%, negative = inhibition) at 10uM” value is listed as -29.9%.

Take `COc1ccc(CCNC(=O)C2CCN(C(=O)c3ccc([N+](=O)[O-])cc3)CC2)cc1`: the “hERG current change (%, negative = inhibition) at 10uM” value is -65.6%.

Consider `CCOCCCN(C(=O)c1snc(C(N)=O)c1N)C(C(=O)NCCC(C)C)c1ccc(F)cc1` (centres unmarked), for which the “hERG current change (%, negative = inhibition) at 10uM” value is reported as -23.6%.

For `Cc1c(C(=O)OCC(=O)c2ccc3c(c2)OCCO3)oc2ccccc12`, the “hERG current change (%, negative = inhibition) at 10uM” value is given as 4.75%.

Consider `CCc1c(O)nc2sc3ccccc3n2c1=O`, for which the “hERG current change (%, negative = inhibition) at 10uM” value is listed as -0.902%.

`CS(=O)(=O)Nc1ccccc1C(=O)NCCSCc1ccccc1`: the “hERG current change (%, negative = inhibition) at 10uM” value is -1.17%.

As to `Cl.c1ccc2c(c1)CNC1(CCCCC1)C2`, the “hERG current change (%, negative = inhibition) at 10uM” value is -2.11%.

Regarding `CC(C)Cc1nnc(NC(=O)CCC(=O)Nc2ccccc2)s1`, the “hERG current change (%, negative = inhibition) at 10uM” value is given as 2.36%.

Consider `CC(=O)Nc1cccc(C(=O)OCC(=O)NC(=O)c2ccccc2)c1`, for which the “hERG current change (%, negative = inhibition) at 10uM” value is reported as -2.01%.

As to `COc1ccccc1CNC(=O)COC(=O)C1CC1`, the “hERG current change (%, negative = inhibition) at 10uM” value stood at 3.35%.

Consider `N#CC(C#N)=Cc1cccn1-c1ccc(C(=O)O)cc1`, for which the “hERG current change (%, negative = inhibition) at 10uM” value amounted to 15.5%.

As to `CCOC(=O)N1CCC(NC(=O)c2cc(C(=O)Nc3ccc(S(=O)(=O)N4CCCCC4)cc3)ccc2CO)CC1`, the “hERG current change (%, negative = inhibition) at 10uM” value is given as 34.2%.

`CCc1cc(=O)oc2cc(C)cc(OC(C)C(=O)NCc3ccccn3)c12` (centres unmarked): the “hERG current change (%, negative = inhibition) at 10uM” value is listed as -12.2%.

`O=C(N/N=C/CCc1ccccc1)c1ccc(CN2c3cccc4cccc(c34)S2(=O)=O)cc1`: the “hERG current change (%, negative = inhibition) at 10uM” value is -10.3%.

Consider `CCCc1oc(C(=O)O)cc1CN1CCOCC1.Cl`, for which the “hERG current change (%, negative = inhibition) at 10uM” value turned out to be 8.54%.

As to `O=c1c2sccc2nc(SCc2cc(=O)n3ccccc3n2)n1-c1ccc(Br)cc1`, the “hERG current change (%, negative = inhibition) at 10uM” value was -32%.

For `Cl.OC(CNCc1cccc(Cl)c1)c1ccccc1` (centres unmarked), the “hERG current change (%, negative = inhibition) at 10uM” value was -2.32%.

On to `N/C(CN1CCCC1=O)=N\OC(=O)c1ccc(Cl)cc1`, for which the “hERG current change (%, negative = inhibition) at 10uM” value is recorded as -5.46%.

For `COc1ccccc1C(=O)N1CCN(c2cccc(C(F)(F)F)c2)CC1`, the “hERG current change (%, negative = inhibition) at 10uM” value is reported as -14%.

Consider `O=C(Nc1ccc(Br)c(Br)c1)C1CCCO1` (centres unmarked), for which the “hERG current change (%, negative = inhibition) at 10uM” value was 3.39%.

As for `NC(=O)NO`, the “hERG current change (%, negative = inhibition) at 10uM” value was -3.92%.

For `COC(=O)C1=C(c2ccc(-c3ccccc3)c(F)c2)C[C@@H]2CC[C@H]1N2C(=O)N1CCCCC1`, the “hERG current change (%, negative = inhibition) at 10uM” value was 31.3%.

Turning to `Cc1c(C(=O)OCCOC(C)C)[nH]c2c1C(=O)CC(C)(C)C2`, the “hERG current change (%, negative = inhibition) at 10uM” value is recorded as -4.9%.

Turning to `CN(Cc1cccc(F)c1)C(=O)c1ccc(S(=O)(=O)C(F)F)cc1`, the “hERG current change (%, negative = inhibition) at 10uM” value is -34.2%.

In the case of `CC1CCN(S(=O)(=O)c2ccccc2[N+](=O)[O-])CC1`, the “hERG current change (%, negative = inhibition) at 10uM” value was -11.4%.
